Experimental data taken from patent US20180312496A1, “BICYCLIC HETEROCYCLE DERIVATIVES AS BROMODOMAIN INHIBITORS” (ORION CORPORATION, priority 2015, published 2018).
Some entries share one result that the patent states for a list of compounds.

Biological target: T1, Bet BRD4 bromodomain (Homo sapiens, UniProt O60885)
T1 construct: fused on or other part: An unnamed tag, implied by the XL-665 labelled antibody used for detection
Test: Bet bromodomain TR-FRET assay
Assay type: binding
Settings: displacement of 300 nM acetyl histone peptide substrate from Bet BRD4 bromodomain protein

Question: How did the IC50 turn out when COc1cc2c(cc1-c1c(C)noc1C)cc(-c1c(C)noc1CO)c(=O)n2Cc1ccccn1 [Compound 11, 6-(3,5-Dimethylisoxazol-4-yl)-3-(5-(hydroxymethyl)-3-methyl-isoxazol-4-yl)-7-methoxy-1-(pyridin-2-ylmethyl)quinolin-2(1H)-one] was run?
Answer: The IC50 was 600 to 1000 nM.

Question: For COc1cc2c(cc1-c1c(C)noc1C)cc(C(=O)Nc1ccc(O)cc1)c(=O)n2Cc1ccccn1 [Compound 40, 6-(3,5-Dimethylisoxazol-4-yl)-N-(4-hydroxyphenyl)-7-methoxy-2-oxo-1-(pyridin-2-ylmethyl)-1,2-dihydroquinoline-3-carboxamide], which IC50 is on record?
Answer: Its IC50 is less than 600 nM.

Question: With COc1cc2c(cc1-c1c(C)noc1C)cc(C(=O)Nc1ccc(C(F)(F)F)cc1)c(=O)n2Cc1ccccn1 [Compound 34, 6-(3,5-Dimethylisoxazol-4-yl)-7-methoxy-2-oxo-1-(pyridin-2-ylmethyl)-N-(4-(trifluoromethyl)phenyl)-1,2-dihydroquinoline-3-carboxamide] as the compound, how does the IC50 read?
Answer: The IC50 was 1000 to 10000 nM.

Question: With COc1cc2c(cc1-c1c(C)noc1C)cc(C(=O)N1CCC(F)C1)c(=O)n2Cc1ccccn1 (centres unmarked) [Compound 115, 6-(3,5-Dimethylisoxazol-4-yl)-3-(3-fluoropyrrolidine-1-carbonyl)-7-methoxy-1-(pyridin-2-ylmethyl)quinolin-2(1H)-one] as the compound, how does the IC50 read?
Answer: Its IC50 is less than 600 nM.

Question: For CCN(CC)C(=O)c1cc2cc(-c3c(C)noc3C)c(OC)cc2n(Cc2ccccn2)c1=O [Compound 61, 6-(3,5-Dimethylisoxazol-4-yl)-N,N-diethyl-7-methoxy-2-oxo-1-(pyridin-2-ylmethyl)-1,2-dihydroquinoline-3-carboxamide], which IC50 is on record?
Answer: Its IC50 is 600 to 1000 nM.

Question: With COc1cc2c(cc1-c1c(C)noc1C)cc(C(=O)Nc1ccc(O)c(C)c1)c(=O)n2Cc1ccccn1 [Compound 48, 6-(3,5-Dimethylisoxazol-4-yl)-N-(4-hydroxy-3-methylphenyl)-7-methoxy-2-oxo-1-(pyridin-2-ylmethyl)-1,2-dihydroquinoline-3-carboxamide] as the compound, how does the IC50 read?
Answer: Its IC50 is less than 600 nM.

Question: For COc1cc2c(cc1-c1c(C)noc1C)cc(-n1ccnc1)c(=O)n2Cc1ccccn1 [Compound 15, 6-(3,5-Dimethylisoxazol-4-yl)-3-(1H-imidazol-1-yl)-7-methoxy-1-(pyridin-2-ylmethyl)quinolin-2(1H)-one], which IC50 is on record?
Answer: Its IC50 is 1000 to 10000 nM.

Question: COc1cc2c(cc1-c1c(C)noc1C)cc(C(=O)N1CCC1)c(=O)n2Cc1ccccc1 [Compound 87, 3-(Azetidine-1-carbonyl)-1-benzyl-6-(3,5-dimethylisoxazol-4-yl)-7-methoxyquinolin-2(1H)-one] was tested. Which IC50 did it give?
Answer: The IC50 was less than 600 nM.

Question: COc1cc2c(cc1-c1c(C)noc1C)cc(C(OCC(C)C)C(F)(F)F)c(=O)n2Cc1ccccn1 (centres unmarked) [Compound 74, 6-(3,5-Dimethylisoxazol-4-yl)-7-methoxy-1-(pyridin-2-ylmethyl)-3-(2,2,2-trifluoro-1-isobutoxyethyl)quinolin-2(1H)-one] was tested. Which IC50 did it give?
Answer: The IC50 was 1000 to 10000 nM.

Question: Which IC50 does the source give for COc1cc2c(cc1-c1c(C)noc1C)cc(C(=O)N1CCC1)c(=O)n2CCc1cccnc1 [Compound 91, 3-(Azetidine-1-carbonyl)-6-(3,5-dimethylisoxazol-4-yl)-7-methoxy-1-(2-(pyridin-3-yl)ethyl)quinolin-2(1H)-one] here?
Answer: Its IC50 is 600 to 1000 nM.

Question: With COc1cc2c(cc1-c1c(C)noc1C)cc(C(=O)NCC(F)(F)F)c(=O)n2Cc1ccccn1 [Compound 36, 6-(3,5-Dimethylisoxazol-4-yl)-7-methoxy-2-oxo-1-(pyridin-2-ylmethyl)-N-(2,2,2-trifluoroethyl)-1,2-dihydroquinoline-3-carboxamide] as the compound, how does the IC50 read?
Answer: Its IC50 is less than 600 nM.

Question: How did the IC50 turn out when COc1cc2c(cc1-c1c(C)noc1C)cc(-c1ccc(F)cc1F)c(=O)n2Cc1ccccn1 [Compound 6, 3-(2,4-Difluorophenyl)-6-(3,5-dimethylisoxazol-4-yl)-7-methoxy-1-(pyridin-2-ylmethyl)quinolin-2(1H)-one] was run?
Answer: The IC50 was less than 600 nM.

Question: With COc1ccc(Cn2c(=O)c(CC(=O)O)cc3cc(-c4c(C)noc4C)c(OC)cc32)cc1 [Compound 79, 2-(6-(3,5-Dimethylisoxazol-4-yl)-7-methoxy-1-(4-methoxybenzyl)-2-oxo-1,2-dihydroquinolin-3-yl)acetic acid] as the compound, how does the IC50 read?
Answer: The IC50 was less than 600 nM.

Question: Which IC50 does the source give for COc1cc2c(cc1-c1c(C)noc1C)cc(-c1ncc[nH]1)c(=O)n2Cc1ccccn1 [Compound 66, 6-(3,5-Dimethylisoxazol-4-yl)-3-(1H-imidazol-2-yl)-7-methoxy-1-(pyridin-2-ylmethyl)quinolin-2(1H)-one] here?
Answer: Its IC50 is less than 600 nM.

Question: Which IC50 does the source give for COc1cc2c(cc1-c1c(C)noc1C)cc(NS(C)(=O)=O)c(=O)n2Cc1ccccn1 [Compound 20, N-(6-(3,5-dimethylisoxazol-4-yl)-7-methoxy-2-oxo-1-(pyridin-2-ylmethyl)-1,2-dihydroquinolin-3-yl)methanesulfonamide] here?
Answer: The IC50 was less than 600 nM.

Question: How did the IC50 turn out when COc1cc2c(cc1-c1c(C)noc1C)cc(C(=O)N(C)c1ccc(O)cc1)c(=O)n2Cc1ccccn1 [Compound 54, 6-(3,5-Dimethylisoxazol-4-yl)-N-(4-hydroxyphenyl)-7-methoxy-N-methyl-2-oxo-1-(pyridin-2-ylmethyl)-1,2-dihydroquinoline-3-carboxamide] was run?
Answer: The IC50 was 1000 to 10000 nM.

Question: With COc1cc2c(cc1-c1c(C)noc1C)cc(-c1ccncc1)c(=O)n2Cc1ccccn1 [Compound 2, 6-(3,5-Dimethylisoxazol-4-yl)-7-methoxy-1-(pyridin-2-ylmethyl)-3-(pyridin-4-yl)quinolin-2(1H)-one] as the compound, how does the IC50 read?
Answer: Its IC50 is less than 600 nM.

Question: How did the IC50 turn out when CNC(=O)c1cc2cc(-c3c(C)noc3C)c(OC)cc2n(Cc2ccccn2)c1=O [Compound 31, 6-(3,5-Dimethylisoxazol-4-yl)-7-methoxy-N-methyl-2-oxo-1-(pyridin-2-yl-methyl)-1,2-dihydroquinoline-3-carboxamide] was run?
Answer: Its IC50 is less than 600 nM.

Question: COc1cc2c(cc1-c1c(C)noc1C)cc(C(=O)NCCCn1ccnc1)c(=O)n2Cc1ccccn1 [Compound 39, N-(3-(1H-imidazol-1-yl)propyl)-6-(3,5-dimethylisoxazol-4-yl)-7-methoxy-2-oxo-1-(pyridin-2-ylmethyl)-1,2-dihydroquinoline-3-carboxamide] was tested. Which IC50 did it give?
Answer: Its IC50 is less than 600 nM.

Question: For CCNC(=O)Cc1cc2cc(-c3c(C)noc3C)c(OC)cc2n(Cc2ccccn2)c1=O [Compound 56, 2-(6-(3,5-Dimethylisoxazol-4-yl)-7-methoxy-2-oxo-1-(pyridin-2-ylmethyl)-1,2-dihydroquinolin-3-yl)-N-ethylacetamide], which IC50 is on record?
Answer: Its IC50 is less than 600 nM.

Question: For COc1cc2c(cc1-c1c(C)noc1C)cc(C(=O)N1CCC(O)C1)c(=O)n2Cc1ccccn1 (centres unmarked) [Compound 26, 6-(3,5-Dimethylisoxazol-4-yl)-3-(3-hydroxypyrrolidine-1-carbonyl)-7-methoxy-1-(pyridin-2-ylmethyl)quinolin-2(1H)-one], which IC50 is on record?
Answer: The IC50 was less than 600 nM.

Question: COc1cc2c(cc1-c1c(C)noc1C)cc(C(=O)N1CCC1)c(=O)n2CC(C)c1ccc(Cl)cc1 (centres unmarked) [Compound 92, 3-(Azetidine-1-carbonyl)-1-(2-(4-chlorophenyl)propyl)-6-(3,5-dimethyl-isoxazol-4-yl)-7-methoxyquinolin-2(1H)-one] was tested. Which IC50 did it give?
Answer: The IC50 was 600 to 1000 nM.

Question: Which IC50 does the source give for COc1cc2c(cc1-c1c(C)noc1C)cc(C(=O)N1CCC1)c(=O)n2CCN1CCN(C(=O)C(C)(C)C)CC1 [Compound 86, 3-(Azetidine-1-carbonyl)-6-(3,5-dimethylisoxazol-4-yl)-7-methoxy-1-(2-(4-pivaloylpiperazin-1-yl)ethyl)quinolin-2(1H)-one] here?
Answer: Its IC50 is 1000 to 10000 nM.

Question: How did the IC50 turn out when COc1cc2c(cc1-c1c(C)noc1C)cc(-c1cnn(CC(=O)NCCO)c1)c(=O)n2Cc1ccccn1 [Compound 80, 2-(4-(6-(3,5-Dimethylisoxazol-4-yl)-7-methoxy-2-oxo-1-(pyridin-2-yl-methyl)-1,2-dihydroquinolin-3-yl)-1H-pyrazol-1-yl)-N-(2-hydroxyethyl)-acetamide] was run?
Answer: Its IC50 is less than 600 nM.

Question: Which IC50 does the source give for COc1cc2c(cc1-c1c(C)noc1C)cc(C(=O)N1CCC(O)CC1)c(=O)n2Cc1ccccn1 [Compound 25, 6-(3,5-Dimethylisoxazol-4-yl)-3-(4-hydroxypiperidine-1-carbonyl)-7-methoxy-1-(pyridin-2-ylmethyl)quinolin-2(1H)-one] here?
Answer: Its IC50 is 600 to 1000 nM.

Question: Which IC50 does the source give for COc1cc2c(cc1-c1c(C)noc1C)cc(-c1cnn(C)c1)c(=O)n2Cc1ccccn1 [Compound 9, 6-(3,5-Dimethylisoxazol-4-yl)-7-methoxy-3-(1-methyl-1H-pyrazol-4-yl)-1-(pyridin-2-ylmethyl)quinolin-2(1H)-one] here?
Answer: The IC50 was less than 600 nM.

Question: For COc1cc2c(cc1-c1c(C)noc1C)cc(OC1CCOCC1)c(=O)n2Cc1ccccn1 [Compound 116, 6-(3,5-Dimethylisoxazol-4-yl)-7-methoxy-1-(pyridin-2-ylmethyl)-3-((tetrahydro-2H-pyran-4-yl)oxy)quinolin-2(1H)-one], which IC50 is on record?
Answer: Its IC50 is less than 600 nM.

Question: For COc1cc2c(cc1-c1c(C)noc1C)cc(C(O)(c1ccccc1)c1ccccc1)c(=O)n2Cc1ccccn1 [Compound 68, 6-(3,5-Dimethylisoxazol-4-yl)-3-(hydroxydiphenylmethyl)-7-methoxy-1-(pyridin-2-ylmethyl)quinolin-2(1H)-one], which IC50 is on record?
Answer: The IC50 was 1000 to 10000 nM.

Question: How did the IC50 turn out when COc1cc2c(cc1-c1c(C)noc1C)cc(CC(=O)Nc1cc(C)c(O)c(C)c1)c(=O)n2Cc1ccccn1 [Compound 59, 2-(6-(3,5-Dimethylisoxazol-4-yl)-7-methoxy-2-oxo-1-(pyridin-2-ylmethyl)-1,2-dihydroquinolin-3-yl)-N-(4-hydroxy-3,5-dimethylphenyl)acetamide] was run?
Answer: The IC50 was less than 600 nM.

Question: Which IC50 does the source give for COc1cc2c(cc1-c1c(C)noc1C)cc(C(=O)N1CC(O)C1)c(=O)n2Cc1ccccn1 [Compound 49, 6-(3,5-Dimethylisoxazol-4-yl)-3-(3-hydroxyazetidine-1-carbonyl)-7-methoxy-1-(pyridin-2-ylmethyl)quinolin-2(1H)-one] here?
Answer: Its IC50 is less than 600 nM.

Question: How did the IC50 turn out when COc1cc2c(cc1-c1c(C)noc1C)cc(C(=O)N1CCC1)c(=O)n2CCc1ccc2c(c1)CCC(C)(C)O2 [Compound 95, 3-(Azetidine-1-carbonyl)-1-(2-(2,2-dimethylchroman-6-yl)ethyl)-6-(3,5-di-methylisoxazol-4-yl)-7-methoxyquinolin-2(1H)-one] was run?
Answer: The IC50 was 1000 to 10000 nM.

Question: For COc1cc2c(cc1-c1c(C)noc1C)cc(C(=O)Nc1cccc(O)c1)c(=O)n2Cc1ccccn1 [Compound 53, 6-(3,5-Dimethylisoxazol-4-yl)-N-(3-hydroxyphenyl)-7-methoxy-2-oxo-1-(pyridin-2-ylmethyl)-1,2-dihydroquinoline-3-carboxamide], which IC50 is on record?
Answer: Its IC50 is 1000 to 10000 nM.
